# Experimental data reported in PMC4336329 (PLoS ONE, 2015).
# The whole screen tested about 310,000 compounds, of which about 2,200 (0.71%) showed an effect of 50% or more. Effects have a minus sign here. The list shows a part of the results. Where a SMILES comes first, the peptide text is derived from it. [ ]: non-standard residue; d: D form. The star is where a group is joined. ξ: configuration not given here. ξArg(NO2) = N=C(NCCCC(N)C(=O)O)N[N+](=O)[O-]; Bz = O=C(c1ccccc1)*
# Molecular target: human ether-à-go-go-related gene (hERG) potassium channel (human, UniProt Q12809)
# Sequence (Q12809 whole entry, looked up): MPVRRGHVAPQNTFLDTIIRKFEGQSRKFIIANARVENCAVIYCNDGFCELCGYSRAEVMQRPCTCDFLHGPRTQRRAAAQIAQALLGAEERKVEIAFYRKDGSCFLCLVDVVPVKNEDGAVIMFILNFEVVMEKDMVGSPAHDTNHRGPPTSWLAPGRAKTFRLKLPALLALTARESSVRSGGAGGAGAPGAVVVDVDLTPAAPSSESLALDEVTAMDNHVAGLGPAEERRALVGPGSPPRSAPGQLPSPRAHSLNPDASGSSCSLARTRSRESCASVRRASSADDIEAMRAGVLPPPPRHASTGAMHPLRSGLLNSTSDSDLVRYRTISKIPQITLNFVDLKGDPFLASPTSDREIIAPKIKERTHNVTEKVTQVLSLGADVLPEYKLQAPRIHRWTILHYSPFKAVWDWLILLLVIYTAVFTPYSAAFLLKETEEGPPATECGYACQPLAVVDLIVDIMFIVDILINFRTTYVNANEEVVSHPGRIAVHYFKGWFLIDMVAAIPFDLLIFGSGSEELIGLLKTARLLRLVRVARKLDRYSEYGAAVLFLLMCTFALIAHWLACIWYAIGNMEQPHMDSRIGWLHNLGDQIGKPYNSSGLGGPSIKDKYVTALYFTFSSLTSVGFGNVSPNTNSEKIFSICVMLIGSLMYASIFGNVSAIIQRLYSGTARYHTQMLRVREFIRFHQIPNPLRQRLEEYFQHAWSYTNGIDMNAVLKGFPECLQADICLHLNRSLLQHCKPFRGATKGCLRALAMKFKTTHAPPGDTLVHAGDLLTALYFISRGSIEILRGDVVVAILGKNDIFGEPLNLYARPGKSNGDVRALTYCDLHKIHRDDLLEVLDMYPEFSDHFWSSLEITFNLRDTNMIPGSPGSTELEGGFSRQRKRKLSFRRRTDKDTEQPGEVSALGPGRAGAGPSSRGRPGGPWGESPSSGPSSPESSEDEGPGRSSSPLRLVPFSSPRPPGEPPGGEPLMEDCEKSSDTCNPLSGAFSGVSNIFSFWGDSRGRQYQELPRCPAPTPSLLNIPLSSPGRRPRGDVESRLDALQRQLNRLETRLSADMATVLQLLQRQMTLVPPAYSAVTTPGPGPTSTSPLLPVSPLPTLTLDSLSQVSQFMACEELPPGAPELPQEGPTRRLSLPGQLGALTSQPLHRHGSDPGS
# Experiment: primary screen, population patch clamp on CHO cells stably expressing hERG
row,SMILES,"hERG current change (%, negative = inhibition) at 1uM [%]"
1,Cc1noc(C)c1-c1ccc2ncnc(NCC3CCCCN3C)c2c1 (centres unmarked),17.7
2,CCOc1ncccc1C(=O)OCc1ccc(C(=O)OC)cc1,9.99
3,Cc1cc(C)n(C)c(=O)c1C#N,12.3
4,COCCN(C(=O)COC(=O)/C=C/c1ccc2c(c1)OCO2)c1c(N)n(Cc2ccccc2)c(=O)[nH]c1=O,11.7
5,O=C(O)C(CCCCNS(=O)(=O)c1ccc(F)cc1)NS(=O)(=O)c1ccc(F)cc1 (centres unmarked),9.45
6,CCCC(=O)Nc1c(-c2cccs2)c(=O)c2ccccc2n1CC,6.42
7,Cc1cccc(C)c1NC(=S)NC(C)(C)CO,14.6
8,CCOc1ccc(NC(=S)Nc2ccc(F)cc2)cc1,4.89
9,Cc1ccnc(NC(=O)c2oc3ccccc3c2C)c1,20.1
10,Cn1ncc(C(=O)Nc2ccc(OC(F)(F)F)cc2)c1-n1cccc1,-6.3
11,CCC(=O)c1ccc(OCC(=O)OCC(=O)NCCCc2ccccc2)cc1,7.9
12,Cc1cccc(NC(=O)CCN2CCN(C/C=C/c3ccccc3)CC2)c1.Cl,-82.5
13,COc1ccc(CCNC(=O)CSc2nnc(-c3ccc(F)cc3)c3ccccc23)cc1OC,6.51
14,CC(=O)C1=C(O)C(=O)N(C2CCCCC2)C1c1ccccc1 (centres unmarked),8.39
15,CC1CCc2[nH]nc(C(=O)O)c2C1 (centres unmarked),-3.27
16,Oc1ccccc1-c1nc(/C=C/c2ccccc2)nn1-c1ccccc1,11.9
17,Cl.NC(CO)c1cn([C@@H](CCC(=O)O)C(=O)N2CCNCC2)nn1 (some centres unmarked),15.5
18,O=C(NCCc1ccc(Cl)cc1)C1CCN(S(=O)(=O)N2CCCCC2)CC1,0.984
19,Cc1ccc(NC(=O)Cc2nc(CCl)cs2)cc1.Cl,12.7
20,Cc1ccc([N+](=O)[O-])cc1NC(=O)Nc1onc(C)c1C,12.9
21,Cc1ccccc1CSCc1nc(N)nc(Nc2ccccc2C)n1,9.23
22,N#CC1=C(N)NC(=S)C(C(N)=O)C1c1ccc([N+](=O)[O-])cc1 (centres unmarked),7.85
23,CC1(C)C2CC[C@]1(C)C(=O)N(CCCCN1CCN(c3ccccn3)CC1)C2=O.Cl,-9.56

row,SMILES,"hERG current change (%, negative = inhibition) at 1uM [%]"
1,CN1C(=O)/C(=C\c2ccccc2OCc2ccccc2)SC1=S,10.6
2,COc1ccc(NC(=O)CN(C)C(=O)c2cccc(S(=O)(=O)Nc3ccccc3Cl)c2)cc1,14.8
3,CCCN=C(C)C1=C(O)c2ccccc2C1=O,16.9
4,CCN(CC)S(=O)(=O)c1ccc(NC2c3ccccc3C(=O)N2Cc2ccc3c(c2)OCO3)cc1 (centres unmarked),7.12
5,CCN1CCCC1CN(Cc1cc2ccc(C)cc2[nH]c1=O)C(=S)Nc1ccc(OC)cc1 (centres unmarked),21.4
6,O=C1CCC(C(=O)N2CCN(c3cnccn3)CC2)CN1CCc1cccc(F)c1 (centres unmarked),0.858
7,Nc1nc2ncc(-c3ccsc3)c(N)n2n1,-9.44
8,CC(C)CCC1(CCNC(C)c2cccs2)CCOC(C)(C)C1 (centres unmarked),9.66
9,CCOC(=O)N1CCN(C(=O)c2ccc(NS(C)(=O)=O)cc2)CC1,6.24
10,CCOC(=O)N1CCN(S(=O)(=O)c2ccc(C(=O)Nc3sc4c(c3C(N)=O)CC(C)(C)NC4(C)C)cc2)CC1,21.2
11,Fc1ccc(Nc2nnc(C(F)(F)F)s2)cc1Cl,10.6
12,Cc1ccc(N2C(=O)C3CC(c4ccccc4)=C4C5C=CC(C6C(=O)N(c7ccc(C)cc7C)C(=O)C56)C4C3C2=O)c(C)c1 (centres unmarked),3.95
13,N/C(=N\OC(=O)c1csnn1)c1ccc(C(F)(F)F)cc1,5.2
14,CC(C)(C)NC(=O)CN(C(=O)c1snc(C(=O)NC2CCCCC2)c1N)c1ccc(F)cc1,8.62
15,NNC(=O)CN1C(=O)CN=C(c2ccccc2)c2cc(Br)ccc21,5.59
16,COc1cc(SC)ccc1C(=O)NCCOc1c(C)cc(C)cc1C,5.5
17,O=C(C1CCN(Cc2cc(Cl)ccc2O)CC1)N1CCN(Cc2ccccc2)CC1.O=C(O)C(=O)O,8.19
18,C#CCSc1nnc(-c2ccc(C)cc2)o1,-5.3
19,CCOC(=O)c1cc(-c2csc(COc3ccccc3Cl)n2)on1,8.86
20,O=C(CS(=O)(=O)c1ccccc1)NCc1ccccc1,-4.91
21,Cc1nc(OCC(=O)c2ccc(Cl)cc2)c(C#N)c2c1COC(C)(C)C2,7.3
22,COc1ccc(-c2noc(CCCC(=O)NC3CCCC3)n2)cc1,12
23,O=C(O)C1C2CCC(O2)C1C(=O)NCCC1=CCCCC1 (centres unmarked),9.85

row,SMILES,"hERG current change (%, negative = inhibition) at 1uM [%]"
1,CCOC(=O)c1cccc(NC(=O)CCNS(=O)(=O)c2cc(Br)cnc2N)c1,14.4
2,COCCNc1nc2nonc2nc1N1C[C@H]2CC[C@H]1C2,9.25
3,CN(C(=O)c1ccc(S(=O)(=O)c2cccc(Cl)c2)c([N+](=O)[O-])c1)C1CCCCC1,-2.35
4,CCOc1ccc(OCCSc2nnnn2C2CCCCC2)cc1,-0.0753
5,CC(C)(C)C(=O)NC(=S)N1CCc2ccccc21,10.8
6,Cc1ccc(NS(=O)(=O)c2ccc3c(c2)NC(=O)CC(=O)N3)cc1C,17
7,Cc1ccc(Nc2nc(-c3cccnc3)cs2)cc1C,9.64
8,CCOC(=O)/C=C/S(=O)(=O)c1ccc(NC(C)=O)cc1,19.5
9,O=C(NC1CCCCC1)C(c1ccc(F)cc1)N(Cc1ccco1)C(=O)c1ccccn1 (centres unmarked),9.86
10,CCOc1cc(CNC(C)(C)CO)cc(Br)c1OCc1ccc(Cl)cc1Cl,13.6
11,C=C(C)Cn1c(NCCOC)nc2c1c(=O)[nH]c(=O)n2C,11
12,COc1ccc(CCC(=O)Nc2cc(S(=O)(=O)N3CCCCC3)ccc2N(C)C)cc1,-8.44
13,Cc1ccc(C(=O)NC(C)c2ccc(-n3ccnc3)cc2)cc1 (centres unmarked),-8.95
14,COc1cc(-c2nnc(NC(=O)CS(=O)(=O)c3ccc(C)cc3)o2)cc(OC)c1OC,17.1
15,O=C(CN1C(=O)C2C3CCC(C3)C2C1=O)OCC(=O)c1ccc(Br)cc1 (centres unmarked),1.5
16,CCCNC(=O)CSc1nccn1Cc1ccco1,14
17,CCOC(=O)NC(=O)COC(=O)CNC(=O)c1ccc(OCC)c(OCC)c1,4.99
18,CC(C)NS(=O)(=O)c1ccc(OCC(=O)N2CCc3ccccc3C2)cc1,14.8
19,COc1cc2nc(C3CCC3)n(NC(=O)C3CCC3)c(=O)c2cc1OC,15.7
20,Cc1[nH]c2ccccc2c1C(=O)C(=O)N1CCN(c2ccccc2F)CC1,13.1
21,CC1(C)NC(=O)N(CC(O)CNC23CC4CC(CC(C4)C2)C3)C1=O (centres unmarked),10.4
22,Clc1ccc(-c2csc(-c3ccncc3)n2)cc1,6.31
23,Cc1nnc(SCC(=O)N2CCC(C(N)=O)CC2)s1,10.1

row,SMILES,"hERG current change (%, negative = inhibition) at 1uM [%]"
1,CCOc1ccc(N2CC(C(=O)Nc3cc(C)on3)CC2=O)cc1 (centres unmarked),2.53
2,CCOC(=O)Cn1cnc2c(nnn2-c2cccc(Cl)c2)c1=O,-4.56
3,Cc1ccc(-c2nnn(CC(=O)N3CCCc4ccccc43)n2)cc1,-3.16
4,COc1ccc(S(=O)(=O)N(C)CC(=O)Nc2ccc3c(c2)OCCO3)cc1,4.6
5,CN(C)NC1CCS(=O)(=O)C1.Cl (centres unmarked),12.3
6,COc1cc([N+](=O)[O-])ccc1NC(=O)C[n+]1ccccc1C.[Cl-],13
7,CN(C(=S)NC(=O)c1ccccc1)C1CCCCC1,-4.47
8,CCCNC(=O)c1ccccc1NC(=O)c1ccc2c(c1)NC(=O)C(C)S2 (centres unmarked),7.72
9,CCO[C@@H]1OC(C(=O)NCc2ccccc2)=C[C@H](c2cn(C(C)=O)c3ccccc23)[C@H]1CCCO,11
10,N/C(=N\[N+](=O)[O-])NCCCC(NC(=O)CNC(=O)c1ccccc1)C(=O)O (centres unmarked) (Bz-Gly-[ξArg(NO2)]-OH),9.59
11,O=C(NCC1CCCO1)c1nc2c(nnn2Cc2ccccc2Cl)c(=O)[nH]1 (centres unmarked),-1.62
12,CCCCN1C(=O)C(=O)N(CC(=O)c2ccc[nH]2)C1=O,17.5
13,COc1ccc(NC(=O)CSc2ncn[nH]2)c([N+](=O)[O-])c1,1.14
14,O=C(NCCc1ccncc1)Nc1ccc(Cl)cc1,-7.61
15,Cn1ncc([N+](=O)[O-])c1C(=O)Nc1ccccc1,11.8
16,COc1cc(CCC(=O)OCC(=O)Nc2ccccc2OC(F)F)cc(OC)c1OC,3.49
17,Cc1ccc(Cl)c2c1NC(=O)C2(O)CC(=O)c1ccc(F)cc1 (centres unmarked),7.1
18,CCOc1ccc(-c2nnn(CC(=O)c3cc(OC)ccc3OC)n2)cc1,6.83
19,Cc1cccc2nc(=S)n(C(=O)c3ccco3)n12,9.54
20,COc1ccc(-c2nc(CS(=O)(=O)CC(=O)NCCc3ccccc3)c(C)o2)cc1,28.1
